Test results as given in publication PMC8456271.
These are yes or no findings as the source states them, for the method shown. In cells and extracts the contact can be indirect. Some results given as binding are weak or reduced against the parent protein; the word gives no strength. Where a sequence is shown, tags or fusion partners need not be part of it. Values belong to the binder of their own block, whether it stands above or below them.

Amino acid sequences for entries named in this document (tags omitted).
UniProt Q16539: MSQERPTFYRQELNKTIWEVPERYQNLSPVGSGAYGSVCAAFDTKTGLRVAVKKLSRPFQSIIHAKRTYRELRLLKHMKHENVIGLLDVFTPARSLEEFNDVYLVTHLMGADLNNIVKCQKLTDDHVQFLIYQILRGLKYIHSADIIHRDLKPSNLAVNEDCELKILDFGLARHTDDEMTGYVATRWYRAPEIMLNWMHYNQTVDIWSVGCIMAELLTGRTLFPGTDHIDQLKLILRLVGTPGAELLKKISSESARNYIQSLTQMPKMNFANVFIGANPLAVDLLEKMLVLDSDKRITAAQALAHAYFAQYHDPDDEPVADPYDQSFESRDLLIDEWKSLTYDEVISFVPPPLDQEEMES

Columns and labels:
[1] = biological target: T1, GST‐MKK3 (UniProt P46734); assay: pull-down; purified GST proteins on Glutathione Agarose beads, incubated with cell lysates at 4 °C for 2–4 h, washed three times with lysis buffer, Western blotting; only the target purified
T1 sequence: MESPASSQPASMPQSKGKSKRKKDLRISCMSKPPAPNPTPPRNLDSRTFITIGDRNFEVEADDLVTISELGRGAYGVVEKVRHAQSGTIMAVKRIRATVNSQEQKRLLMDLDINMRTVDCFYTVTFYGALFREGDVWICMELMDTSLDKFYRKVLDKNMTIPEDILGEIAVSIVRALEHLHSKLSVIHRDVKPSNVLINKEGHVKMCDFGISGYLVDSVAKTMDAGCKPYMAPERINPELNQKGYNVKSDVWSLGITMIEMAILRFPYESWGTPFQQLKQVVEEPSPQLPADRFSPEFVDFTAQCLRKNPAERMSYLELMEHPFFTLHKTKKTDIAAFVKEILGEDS

[2] = biological target: GST‐p38 (UniProt Q16539); assay: as above
[3] = biological target: T2, GST‐MKK6 (UniProt P52564); assay: as above
T2 sequence: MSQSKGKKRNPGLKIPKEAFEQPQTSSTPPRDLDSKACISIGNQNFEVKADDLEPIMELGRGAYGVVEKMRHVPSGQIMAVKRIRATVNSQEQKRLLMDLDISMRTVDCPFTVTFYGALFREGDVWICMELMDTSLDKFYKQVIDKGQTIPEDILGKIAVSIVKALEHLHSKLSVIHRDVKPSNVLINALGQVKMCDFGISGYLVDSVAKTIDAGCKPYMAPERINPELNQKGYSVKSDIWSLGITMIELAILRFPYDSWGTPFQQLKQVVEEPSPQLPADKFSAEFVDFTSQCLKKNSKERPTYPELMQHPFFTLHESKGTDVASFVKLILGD

[4] = biological target: T1, GST‐MKK3; assay: FRET or BRET; cell lysates containing Venus‐tagged DDIT4 (acceptor) incubated with GST recombinant proteins (donor); 20 × 10^−3 M Tris pH 7.0, 50 × 10^−3 M NaCl, 0.01% NP‐40; 96‐well plate, room temperature, 1 h; ratio 520 nm / 486 nm; only the target purified
[5] = biological target: GST‐p38 (UniProt Q16539); assay: as above
[6] = biological target: T2, GST‐MKK6; assay: as above

binding [1]: no binding | binding [2]: binds | binding [3]: no binding
B1: DDIT4 in cell lysates (GST pull‐down) (protein, UniProt Q9NX09 1-232)
chain: MPSLWDRFSSSSTSSSPSSLPRTPTPDRPPRSAWGSATREEGFDRSTSLESSDCESLDSSNSGFGPEEDTAYLDGVSLPDFELLSDPEDEHLCANLMQLLQESLAQARLGSRRPARLLMPSQLVSQVGKELLRLAYSEPCGLRGALLDVCVEQGKSCHSVGQLALDPSLVPTFQLTLVLRLDSRLWPKIQGLFSSANSPFLPGFSQSLTLSTGFRVIKKKLYSSEQLLIEEC

binding [4]: no binding | binding [5]: binds | binding [6]: no binding
B2: Venus‐tagged DDIT4 (protein, UniProt Q9NX09 1-232)
chain: B1 chain
